# Source: ChEMBL document CHEMBL4888484, “Replenishing the malaria drug discovery pipeline: Screening and hit evaluation of the MMV Hit Generation Library 1 (HGL1) against asexual blood stage Plasmodium falciparum ,using a nano luciferase reporter read-out” (2022)
# The whole screen tested about 150,000 compounds, of which about 540 (0.36%) showed an effect of 50% or more. The list shows a part of the results.
# System: Plasmodium falciparum
# Assay: Primary screen in NF54 nanoGlo assay, in single point, at 2uM, 72h; a lower Z score goes with more inhibition
# Type: functional, Erythrocyte
# Conditions: timepoint 72 hour
SMILES,% Inhibition [%],Z score
CC(C)OC(=O)Nc1nn(C)cc1S(=O)(=O)N1CCCC1,1,-0.14
CC(C)CN(C(=O)CN1CCCCC1=O)C1CC1,-10,1.15
O=C(c1ccc2[nH]ccc2c1)N1CC[C@H](N2CCOC2=O)C1,4,-0.68
OCCn1nc(Cc2c(Cl)cccc2Cl)nc1C1CCNCC1,-6,0.78
COc1ccc(Cl)cc1S(=O)(=O)c1cnc(N2CCC(N3CCCCC3)CC2)nc1N,6,-0.95
Cc1ccnc(-n2nccc2NC(=O)N[C@H]2CCCOc3cc(F)ccc32)c1,-15,1.49
CCNC(=O)N1CCN(c2nc(C)nc3c2c(C)nn3-c2ccc(C)cc2)CC1,-18,1.92
CC(C)S(=O)(=O)N(C)CC(=O)N(C)Cc1ccc(F)cc1,-11,1.5
COCc1noc(CNC(=O)c2c(C)ncnc2C)n1,-13,2.29
CC(=O)NC1CCC(NCCOc2ccccc2)CC1 (stereo not given),-11,1.19
C=C(C)CN(CC)C(=O)C(=O)Nc1ccc(OC)cc1Cl,-6,0.83
O=C(c1nn(Cc2ccccc2)c(=O)c2ccccc12)N1CCC[C@H]1c1ccc2c(c1)OCCO2,-27,3.21
C[C@H](C(=O)N1Cc2cn[nH]c2C(C)(C)C1)C1CC1,-19,2.58
CN(CCN1CCCC1)c1cc(C(=O)N2CCOCC2)ccn1,1,-0.29
O=C(NC[C@H]1COc2ccccc2O1)c1ccc(O)nc1,-5,0.72
COc1cc2c(cc1OC)C1(CCOCC1)CN(CC[C@@H](c1ccccc1)c1ccccc1O)C2,-14,2.15
CCN(CC(=O)Nc1ccc2c(c1)OCCO2)CC(=O)Nc1ccc2c(c1)OC1(CCCCC1)O2,-29,4.22
O=C(N[C@H]1C[C@@H]2C(=O)N[C@H]3CCN(C(=O)c4ccccc4)[C@@H]3C(=O)N2C1)c1ccc(F)c(Cl)c1,24,-2.66
Cc1nc[nH]c1CN1C[C@H]2CC[C@@H](C1)N(Cc1ccc(CC(C)C)s1)C2,-3,0.53
CCc1n[nH]c(=O)c(-c2nc(C3CCOCC3)cs2)c1CC,-1,0.18
O=S(=O)(CCc1noc(-c2ccsc2)n1)c1ccccc1,-16,1.51
COc1ccc(NC(=O)N2CCC[C@@H]2CN2CCCC2)cc1C,-4,0.57

SMILES,% Inhibition [%],Z score
CCn1c(-c2cc(NC(=O)c3ccco3)[nH]n2)cc2cc(OC)ccc21,2,-0.35
O=C(NCc1ccccc1)[C@]1(F)CCN(S(=O)(=O)c2cccc(F)c2)C1,2,-0.24
CCCCNCCCOc1ccc(Cl)c(C)c1,9,-1.7
O=C1CCC2(CCN(Cc3ccc(F)cc3)CC2)CN1[C@H]1CC[C@H](O)CC1,-5,0.99
COc1cc2c(cc1OC)CN(C(=O)COc1cccc3c1CCC3=O)CC2,-8,1.04
Cc1ccc(F)cc1NC(=O)NC1CCN(C[C@H]2CCOC2)CC1,-8,1.45
CN(Cc1ccccc1)c1nc2ncn(CC(=O)Nc3ccccc3)c(=O)c2s1,-9,1.27
CCNC(=O)c1c(NC(=O)c2cc(-c3ccc4c(c3)OCCO4)on2)sc2c1CCCC2,15,-1.72
CCNc1cc(CNC(=O)Nc2ccsc2C)ccn1,-5,0.88
CC(C)c1nc(CNC(=O)C[C@H]2C(=O)NCCN2Cc2ccccn2)no1,2,-0.33
Cn1ccnc1CCNC(=O)Cc1csc(-c2cccnc2)n1,-8,0.85
CCn1nc(C)n2cc(S(=O)(=O)N3CCC(Cc4ccccc4)CC3)cc2c1=O,-2,0.26
CN1CCN(Cc2cnc(-c3ccccc3)s2)C[C@@H]1CCO,-12,1.4
Cn1ccnc1-n1cc(-c2cccc(C(=O)O)c2)cn1,-9,1.38
CCN(CC)C(=O)[C@@H]1CCCN1C(=O)NCc1ccsc1,-10,1.82
CC(C)(C)CN1CCNC(=O)[C@@H]1CC(=O)NC1CCCCCCC1,6,-0.68
COc1cc(CN2CCS(=O)(=O)C(C)C2C)cc2c1OCCO2 (stereo not given),-9,1.83
COCCn1c(-c2cc3c(C)cccc3[nH]2)nnc1N1CCCC1,2,-0.38
CN(C)C(=O)C1CCN(CC(=O)N[C@H](c2ccccc2)C2CCCCC2)CC1,-7,1.28
Cc1ncnc(OCC2CCN(C(=O)c3ccc(=O)[nH]c3)CC2)c1C,-11,1.19
O=C(N[C@@H](Cc1ccccc1)C(=O)O)C1CCCO1 (stereo not given in full),2,-0.29
COC[C@H]1CCCN1[C@@H]1[C@H](O)[C@H](CO)O[C@@H]1CNS(=O)(=O)c1ccccc1,-3,0.52

SMILES,% Inhibition [%],Z score
O=C(c1ccc2nsnc2c1)N1CCC(Oc2cccc3cccnc23)CC1,-13,2.41
CNCC#CCOc1cc(C)cc(C)c1C,-17,1.84
CCc1ccc(CN(C)Cc2cscn2)s1,3,-0.67
CC(C)[C@H](Cn1nccn1)NC(=O)CC1CCCC1,-12,1.9
CC(C)c1nnsc1CN1CCC[C@@]2(C1)C(=O)Nc1ccccc12,5,-0.82
CCCc1noc2c1-c1onc(O)c1C(C)(C)C2,-15,2.96
CCc1cccc(NC(=O)Cn2nc(N3CCOCC3)c3ccccc3c2=O)c1,-8,1.47
COc1ccc(CC(=O)Nc2cc(S(=O)(=O)N3CCOCC3)ccc2N2CCOCC2)cc1OC,-4,0.61
CCN(C(=O)c1cc(N)ccc1Cl)C(C)C,6,-0.81
C[C@@H](CO)NC(=O)c1ccc(S(=O)(=O)N2C[C@H]3CC=CC[C@H]3C2)cc1,-5,0.6
Cn1cc(CCNC(=O)N(Cc2ccsc2)C2CCCC2)cn1,-4,0.75
Cn1c(=O)n([C@H]2CCCN(C(=O)c3cccnc3)C2)c2ncccc21,-17,2.21
CCCOc1cc(C)ccc1NCCCS(C)(=O)=O,-11,1.08
Cc1ccc(C)c(NC(=O)c2cc(C(C)C)n(-c3ccccn3)n2)c1,-7,0.69
O=C1O[C@H]2CN(c3nc4ccccc4o3)C[C@H]2N1CCc1cccc(Cl)c1,-16,1.94
COCCC1(c2noc(-c3ccc(F)cc3)n2)CCN(Cc2scnc2C)CC1,0,0.02
Clc1cc(CNCc2ccccc2)ccc1OCc1ccccc1,11,-1.33
CC1(C)CCC[C@H](C(=O)Nc2cc(C(=O)O)ccn2)C1,-4,0.81
COc1cccc(CNC(=O)CN(C[C@H]2CCCO2)C(=O)OC(C)(C)C)c1,-12,1.28
Cc1cc(C)c(CN2CCC(C)CC2)cc1CN[C@@H](C)c1nncn1C,-7,1.41
NC(=O)c1cc(-c2cc(NC3CCCC3)nc3[nH]ccc23)ccc1F,-11,1.04
Cc1nnc(NCCc2noc([C@@H]3CCCO3)n2)o1,11,-1.24

SMILES,% Inhibition [%],Z score
Cc1cc(=O)n(CC(=O)Nc2ccccc2)c(N2CCCC2)n1,-34,3.69
CCC(C)(C)NS(=O)(=O)c1cc(C)ccc1C,-4,0.68
O=C1NCCN(C(=O)c2cnc3c(c2)CCCC3)[C@H]1c1cccc(F)c1,14,-1.98
CC1CCC(NC(=O)N(C)CC2(CO)CC2)c2ccccc21 (stereo not given),5,-0.7
CCc1nn(C)cc1CN(C)[C@H]1CC(=O)N(Cc2ccccc2)C1=O,-1,0.14
CCOc1c(OC)cccc1[C@H]1CC(=O)Nc2ccsc21,-8,0.97
O=C(Nc1ccc(F)c(F)c1F)c1ccnc(OCC2CC2)c1,-4,0.52
CCOC(=O)N1CCN(C(=O)c2cc3n(n2)CCN(Cc2ccccc2)C3=O)CC1,-11,1.39
O=C1N[C@H](C(=O)Nc2cccc(-c3cnc[nH]3)c2)Cc2ccccc21,11,-1.55
Clc1ccccc1/C=C/c1nc2ccccc2nc1N1CCOCC1,-15,2.64
O=C(c1ccnc(OCC2CC2)c1)N1CCc2ccccc21,-16,3.07
CCN1CC[C@@]2(CCC1=O)CN(C(=O)CCc1ccccc1)CCN2C,-14,1.78
COc1cccc(-c2cc(C3CCC3)nc(N)c2C#N)c1OC,-25,2.56
CCOc1ccc(CNC(=O)COCc2nnc(C(=O)Nc3cccc(F)c3)s2)cc1,-12,1.69
Cc1cc(C(=O)N(CC2CC2)CC2CC2)ccc1N,9,-1.08
Cc1nc2ccc(CNC(=O)CN3CCCCC3=O)cc2[nH]1,-17,2.16
O=C(Nc1nc2c(s1)CN(C(=O)C1CC=CCC1)CC2)C1CCCO1 (stereo not given),-15,2.44
CCC(C)C(NC(=O)C1CCC1)c1nc(-c2ccc(Cl)cc2)no1 (stereo not given),5,-0.62
Cc1cccc(-c2nc3cc4c(cc3cc2CN2CCC[C@H](C(N)=O)C2)CCC4)c1,-13,1.27
